Assay results: PubChem BioAssay AID1347417 (National Center for Advancing Translational Sciences (NCATS), 2020)
The whole screen tested about 120,000 compounds, of which about 5,300 (4.4%) were called active. The shares of active, inactive and inconclusive entries below differ from those in the screen. The call rests on the fitted dose curve; in most records, active means well fitted inhibition curve with a large enough effect; inconclusive means small, poorly fitted or top-dose-only effect; inactive means no such curve, though single readings can be large or run the other way. A potency beside an inconclusive call is a rough fit, not a confirmed value.

assay: qHTS Primary assay for Inhibitors of Plasmodium falciparum Dd2 growth in vitro; further: nearly all actives have a fitted effect of over 65% in size;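 on activity, negative = inhibition: plate controls were DMSO vehicle for no effect and reference drug for full effect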; conditions: P. falciparum Dd2 growth, SYBR Green, 72 h; activity, negative = inhibition: at 28.9 µM (top of the series) unless noted; series mostly up to 28.9 µM
In short: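 Infected erythrocytes (Dd2, 0.3% parasitemia, 2.5% hematocrit final) are added to compound in RPMI-1640/Albumax II medium, grown 72 h at 37C in low oxygen, then lysed with saponin/Triton-X containing SYBR Green and read by fluorescence.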
Potency means the concentration at half of the fitted maximal effect; tags describe the fitted curve by direction and shape.

SMILES	Potency	activity, negative = inhibition	outcome
O=C(Cc1cccc(Cl)c1)N1CCC2(CC1)N(c1ccccc1)C(=O)CS2(=O)=O	inconclusive: 7.08 µM [inhibitor, partial curve]		
CC(C)[C@]1(O)CN(C(=O)c2ccc3c(c2)CCCO3)C[C@H]1C		inactive: -6.25%	
Cn1nccc1CN1CCn2c(nnc2-c2ccccc2)C1		inactive: 0.989% [at 44.1 µM]	
CCCc1nn2c(=O)cc(COC(=O)c3ccccc3NC(=O)C3CCCCC3)nc2s1	inconclusive: 3.98 µM [inhibitor, partial curve, poor fit]		
CCN1c2cc(C(=O)Nc3ccc4c(c3)CCC4)ccc2C(=O)N2CCCCC21 (stereo not drawn)	inconclusive: 0.112 µM [inhibitor, full curve, poor fit]		
CN1CCC2(CC1)CN(C(=O)Cc1cccs1)Cc1ccccc1O2	inconclusive: 1.41 µM [inhibitor, partial curve, poor fit]		
CNC(=O)CC1COCCN1C(=O)c1cccc(Cn2nc(C)cc2C)c1 (stereo not drawn)		inactive: -9.4%	
COc1cccc(NC(=O)C2=NO[C@@H]3CN(Cc4ccc(F)cc4)C[C@H]23)c1	inconclusive: 11.2 µM [inhibitor, single point]		
Cc1cccc(CN2C(=O)CN=C(c3ccccc3)c3cc(Cl)ccc32)c1	inconclusive: 12.6 µM [inhibitor, single point]		
COc1cc(F)cc(-c2ncc3c(n2)OCCN(Cc2ccc(F)cc2F)C3=O)c1	inconclusive: 25.1 µM [inhibitor, single point]		
O=C(NCC1CCCN(Cc2ncccn2)C1)c1ccc(-c2ccccc2)cc1 (stereo not drawn)	inconclusive: 12.6 µM [inhibitor, single point]		
CCOC(=O)C1(Cc2cccc(OC)c2)CCCN(C(=O)CSc2ccncc2)C1 (stereo not drawn)	inconclusive: 17.8 µM [inhibitor, single point]		
COc1ccc(-c2c(C)nn3c(C(F)(F)F)cc(C)nc23)cc1OC	inconclusive: 17.8 µM [inhibitor, single point]		
COc1cccc(CNCCCSc2nnnn2C)c1	inconclusive: 14.1 µM [inhibitor, partial curve, poor fit]		
Cc1ccccc1CN1C(=O)c2ccccc2S(=O)c2ccc(C(=O)NCc3ccccc3)cc21 (stereo not drawn)			inactive
Cc1ncccc1C(=O)N1CCC2(CC1)CC(N(Cc1ccc(F)cc1)C1CC1)CCO2 (stereo not drawn)	inconclusive: 10 µM [inhibitor, partial curve, poor fit]		
COc1ccc(Cc2ncc3c(n2)CN(C(=O)c2ccc(F)c(C)c2)C3)cc1	inconclusive: 14.1 µM [inhibitor, partial curve]		
CC(C)c1nc2c(c(-c3ccc(O)cc3)n1)CN(Cc1ccc(F)cc1)CC2	inconclusive: 3.98 µM [inhibitor, single point]		
CCOc1cccc(CC(=O)N2CCc3c([nH]c4ccccc34)C2c2ccc(OC)cc2)c1OCC (stereo not drawn)	inconclusive: 17.8 µM [inhibitor, single point]		
COc1ccc(Cn2c(C(=O)O)c(CNCCc3cccs3)c3ccc(OC)cc32)cc1	inconclusive: 10 µM [inhibitor, single point]		
CC1=C(C(=O)OC2CCCCCC2)C(c2ccccc2Cl)CC(=O)N1 (stereo not drawn)	inconclusive: 11.2 µM [inhibitor, single point]		

SMILES	Potency	activity, negative = inhibition	outcome
N#Cc1cccc(-c2ccc3n(c2=O)C[C@H]2C[C@@H]3CN(C(=O)c3ccc(F)cc3)C2)c1		inactive: 2.22% [at 44.1 µM]	
Cc1ccc(-n2c(SCc3nc(-c4ccc(Cl)cc4)no3)nnc2-c2ccncc2)cc1	inconclusive: 17.8 µM [inhibitor, single point]		
CCOc1ccccc1CN1CCC2(CCN([S+](=O)([O-])c3c(C)noc3C)CC2)Oc2ccccc21	inconclusive: 3.55 µM [inhibitor, single point]		
Cn1nccc1C(=O)N1CCC2(CC1)OC(=O)N(CCOc1ccccc1)C2(C)c1cccnc1 (stereo not drawn)	inconclusive: 17.8 µM [inhibitor, single point]		
Cc1cnc(C2CCC2)n1CC1CCN(C(=O)CCc2ccccc2)CC1	inconclusive: 17.8 µM [inhibitor, single point]		
COc1ccc(CCNC(=O)CCc2c(C)nc3c(-c4ccc(F)cc4)c(C)nn3c2C)cc1OC	inconclusive: 17.8 µM [inhibitor, single point]		
CN(Cc1cccnc1)Cc1nc(C2(O)CCN(C3CCC3)CC2)cs1	inconclusive: 31.6 µM [inhibitor, single point]		
Cn1nccc1OCc1cn2c(=O)n(C)cc(-c3cccc(OC(F)(F)F)c3)c2n1		inactive: -13.3% [at 44.1 µM]	
O=C1NC2(CCCN(C(=O)c3ccccn3)C2)Oc2ccccc21 (stereo not drawn)		inactive: 0.967% [at 44.1 µM]	
COc1cccc(CN2CCCOCCNC(=O)[C@@H]3CCCC[C@@H]32)c1	inconclusive: 1 µM [inhibitor, partial curve]		
C=CCN(Cc1nc(-c2ccccc2)no1)Cc1nccn1C	inconclusive: 8.91 µM [inhibitor, partial curve, poor fit]		
Cc1cnc(CCNC(=O)Cc2ccccc2)n1CC1CC1	inconclusive: 2.51 µM [inhibitor, full curve, poor fit]		
CN1CCCN(S(=O)(=O)c2ccccc2F)c2ccccc21		inactive: -26.5%	
NC(=O)[C@@H]1CCCN1c1ccc(-c2nc(Cc3ccccc3)no2)cn1			inactive
O=C(NCC1CC1)[C@H]1CN(Cc2ccccc2)C[C@H]1C(=O)O			inactive
O=[S+]1([O-])NCC2(CCN(Cc3ccccc3)CC2)Nc2ccccc21	inconclusive: 7.94 µM [inhibitor, partial curve, poor fit]		
CCN1CCN(CCNC(=O)[C@H]2CCC[C@H]2NC(=O)c2ccc(OC)cc2)CC1		inactive: 4.09%	
COc1cccc(CN2C(=O)OC3(CCN(Cc4ccccc4OC)CC3)C2(C)c2cccnc2)c1 (stereo not drawn)	active: 1.12 µM		
COc1ccc(NC(=O)c2ccc(-c3nnc4ccc(NC(=O)C5CCC5)cn34)cc2)cc1	active: 1 µM		
COc1ccc(-c2noc([C@@H]3Cc4nc[nH]c4CN3Cc3ccc(NC(C)=O)cc3)n2)cc1	inconclusive: 3.16 µM [inhibitor, full curve]		
N#Cc1cccc(C(=O)Nc2ccc([C@H]3OCC(=O)N(C4CCOCC4)[C@@H]3CO)cc2)c1		inactive: -23.9%	

SMILES	Potency	activity, negative = inhibition	outcome
O=C(CN1CCCc2nc(-c3ccncc3)ncc2C1=O)NCCCN1CCCC1=O	inconclusive: 20 µM [inhibitor, single point]		
COc1cccc([S+](=O)([O-])N2CCC3(CC2)C(=NC2CCCCC2)NC(=O)N3c2cc(F)cc(F)c2)c1	inconclusive: 1.41 µM [inhibitor, full curve]		
COCCN1CCCCCC(O)c2cc(C(=O)N3CCN(c4ccccc4F)CC3)ccc21 (stereo not drawn)	inconclusive: 10 µM [inhibitor, partial curve, poor fit]		
Cc1ccc2onc(CC(=O)N3CCN(c4ccccc4F)CC3)c2c1		inconclusive: -71% [inhibitor] [at 0.594 µM]	
O=C(CCCn1c(=O)c2cccn2c2ccccc21)Nc1cccc(Cl)c1	inconclusive: 7.08 µM [inhibitor, partial curve, poor fit]		
CC(C)NC(=O)N1CCN2C(=O)c3cc(-c4ccc5c(c4)OCO5)ccc3NC(=O)[C@H]2C1	inconclusive: 8.91 µM [inhibitor, single point]		
O=C(c1ccccc1F)N1CCn2c(nnc2-c2ccncc2)C1			inactive
COc1ccc(-c2cc(C[C@@H]3CC[C@H](O)[C@@H](CNCc4ccccc4OC)O3)no2)cc1	inconclusive: 0.501 µM [inhibitor, full curve, poor fit]		
O=c1cccc2n1C[C@H]1C[C@@H]2CN(C[C@H]2CN3CC[C@H]2C[C@@H]3CNS(=O)(=O)c2cccs2)C1	inconclusive: 2.51 µM [inhibitor, single point]		
CCn1ccnc1CN(C)Cc1cn(Cc2ccccc2)nc1-c1cc2ccccc2o1	inconclusive: 11.2 µM [inhibitor, single point]		
CCc1cccc(CC)c1N(COC)C(=O)Cn1c(C)nc2ccccc21	inconclusive: 5.01 µM [inhibitor, single point]		
CCN(CC)CCOC(=O)c1ccc(NC(=O)CSc2cc(=O)n(CC)c3ccccc23)cc1		inactive: 88.6%	
Cc1ccc(-c2ccc(=O)n(CC(=O)Nc3ccc(C(C)C)cc3)n2)cc1	inconclusive: 0.0126 µM [inhibitor, full curve, poor fit]		
Cn1cc(C(=O)N2CCCN(S(=O)(=O)c3ccccc3)CCC(=O)NCC2)cn1		inactive: 15.4%	
O=C1CC(C(=O)NCc2cc3n(n2)CCN(C2CCCCC2)C3)C2(CCCC2)O1 (stereo not drawn)	inconclusive: 10 µM [inhibitor, single point]		
COc1cccc(NC(=O)CSc2nc3c([nH]c4ccccc43)c(=O)n2-c2cccc(Cl)c2)c1	inconclusive: 10 µM [inhibitor, partial curve, poor fit]		
Cc1nn2c(c1-c1ccccc1C(C)C)N(C(=O)Cc1ccccn1)CCC2	inconclusive: 12.6 µM [inhibitor, single point]		
CC1=C[C@@H](CNC(=O)c2ccccn2)[C@H](C(C)C)C[C@H]1Cc1nnc(-c2ccncc2)o1	inconclusive: 3.16 µM [inhibitor, full curve, poor fit]		
O=C(NC1CC1)[C@@H]1C[C@H](Oc2cccnc2)CN1C(=O)CCCc1c[nH]c2ccccc12	inconclusive: 20 µM [inhibitor, single point]		
Cc1noc2c(NCCc3ccccn3)cc(-c3ccc(Cl)cc3)nc12		inactive: -0.0639% [at 44.1 µM]	
O=C(Nc1ccc(Cl)cc1)N1CCC(c2nn(-c3ccc(Cl)cc3)c(=O)[nH]2)CC1	inconclusive: 11.2 µM [inhibitor, single point]		
